PubChem BioAssay AID1508642 (National Center for Advancing Translational Sciences (NCATS), 2021)
In all, about 43,000 compounds went through this assay and about 200 (0.47%) were called active. Not shown: some 12% with an inconclusive outcome. Calls come from the whole dose curve; as a rule, active = well fitted cell-killing curve with a large enough effect; inconclusive = small, poorly fitted or top-dose-only effect, or effect the other way; inactive = flat fitted curve, though single readings scatter. Some of the results follow.

assay: Cell viability qHTS assay in S16 Pmp22-F2sN cells; settings: S16 Pmp22-F2sN Schwann cells (luciferase reporters placed in the Pmp22 gene) viability, CellTiter-Glo, 24 h; series mostly up to 57.5 µM; activity change, negative = cytotoxicity: at the top concentration; note: nearly all actives have a fitted effect of over 65% in size
In short: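 S16 Schwann cells carrying the Pmp22-F2sN reporter, seeded in 1536-well format, were exposed to library compounds for 24 h at 37C. Viability was read as CellTiter-Glo luminescence after 15 min at room temperature.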
% is set by controls: 0 for no effect and ±100 for the full control effect.

SMILES	activity change, negative = cytotoxicity
Cc1ccc(NS(=O)(=O)c2ccc3nc(-c4ccccc4)[nH]c3c2)c(Br)c1	inactive: -3.65%
Cc1ccc(Nc2nc3ccc(C(=O)c4ccccc4)cc3n3c(C)nnc23)c(C)c1	inactive: -0.122%
COc1ccc(-c2noc(CC(=O)Nc3cc(OC)ccc3OC)n2)cc1	inactive: -22.8%
O=C(/C=C/c1ccc(Cl)cc1)N1CCC(c2nc3ccccc3o2)CC1	inactive: 0.88%
CCCCN(CC)CCCNC(=O)c1cn(CC)c2ccc(S(=O)(=O)N3CCc4ccccc4C3)cc2c1=O	inactive: -24.7%
CCCn1c(=O)c2sccc2n2c(CCCC(=O)N3CCN(c4cccc(Cl)c4)CC3)nnc12	inactive: 11%
CC(=O)c1cccc(NC(=O)CN2C(=O)CC(c3ccc(C)cc3C)=Nc3ccccc32)c1	inactive: 5.17%
CCCCNS(=O)(=O)c1ccc2nc(-c3cccnc3)cc(C(=O)NC(C)C)c2c1	inactive: -12.1%
Cn1nc(C(=O)N2CCN(c3ccccc3F)CC2)c2c1-c1ccccc1S(=O)(=O)C2	inactive: -1.01%
O=C(CN1C(=O)c2cccc3cccc1c23)Nc1ccccc1Br	inactive: 3.14%
CCCC1N=C2c3ccccc3N=C(SCC(=O)NCCc3ccc(Cl)cc3)N2C1=O (configuration not stated)	inactive: -8.07%
O=C(c1cc(-c2ccc(F)cc2)on1)N1CCN(c2ccc(F)cc2)CC1	inactive: 16%
CC(C)NC(=O)c1ccc2c(c1)nc1n2CCCCC1	inactive: 10.1%
CCOC(=O)COc1ccc(C)cc1C(=O)c1ccn2nc(-c3ccc(Cl)cc3)cc2n1	inactive: 8.38%
CCOC(=O)c1ccccc1NC(=O)c1cc2ccc3cccnc3c2[nH]1	inactive: -1.99%
CCCOC(=O)CSc1nnc(-c2ccccc2)o1	inactive: -0.136%
CCn1c(C(=O)Nc2ccc(C)cc2C)cc2sc(Cl)cc21	inactive: -23.6%
Cc1oc2ncnc(N3CCOCC3)c2c1C(=O)NCCc1ccccc1	inactive: 19.8%
CCOc1ccc(OCC(=O)NCCS(=O)(=O)N2CCN(c3cccc(Cl)c3)CC2)cc1	inactive: -2.47%
Cc1cccc(NC(=O)N2CCC(N3CCN(Cc4ccccc4)C(=O)C3=O)CC2)c1C	inactive: 19.7%
CC(C)c1ccc(CNc2nc(-c3ccco3)nn2S(=O)(=O)c2ccc(F)cc2)cc1	inactive: -24.3%

SMILES	activity change, negative = cytotoxicity
Cc1cccc(N2CCN(Cc3cc(=O)oc4cc(C)ccc34)CC2C)c1 (configuration not stated)	inactive: 14.6%
Cc1ccccc1N1CC(c2nnc(NC(=O)c3ccco3)s2)CC1=O (configuration not stated)	inactive: -0.54%
COc1cc(C2Nc3ccccc3-c3nnc(SCc4ccc(C)cc4)nc3O2)cc(OC)c1O (configuration not stated)	inactive: -8.61%
CCCC(=O)Nc1cccc(-c2cn3c(C)csc3n2)c1	inactive: 23.8%
Cc1c(Cl)cccc1NC(=O)C1CCN(c2nc3ccccc3[nH]2)CC1	inactive: 2.83%
COC(=O)c1sccc1S(=O)(=O)N(CC(=O)Nc1ccccc1)c1ccccc1	inactive: 14.6%
CCc1ccc(CNC(=O)c2cnc3c(C)cccn3c2=O)cc1	inactive: -2.45%
CSc1ccc(CCNC(=O)c2cc3cc4cc(C)ccc4nc3s2)cc1	inactive: 14.2%
Cc1ccc(Cn2c(=O)c3cccnc3n(CC(=O)Nc3cc(Cl)ccc3C)c2=O)cc1	inactive: -3.82%
CCc1nn(CC(=O)NCCCc2ccccc2)c(=O)c2cc3ccccc3n12	inactive: 8.82%
Cc1c(Cl)cccc1NC(=O)Cn1c(=O)n(Cc2nc(-c3ccccc3)no2)c(=O)c2cc3c(cc21)OCO3	inactive: 16.5%
Cc1ccc(C(=O)Nc2ccc3oc(-c4ccccc4C)nc3c2)cc1	inactive: 2.53%
CCCCNC(=O)c1ccc2c(c1)NC(=O)C(CS(=O)(=O)Cc1ccc(C)cc1)N2 (configuration not stated)	inactive: 4.23%
CC(=O)N1CCc2c(sc3c2c(=O)n(-c2ccc(C)cc2)c(=O)n3Cc2ccccc2C)C1	inactive: -2.44%
Cc1ccc2oc(=O)n(CCNC(=O)Nc3ccc(Cl)cc3)c2c1	inactive: -7.95%
Cc1cc(C(=O)NCc2ccccc2Cl)c2c(C)nn(-c3cccc(F)c3)c2n1	inactive: -5.84%
O=C(NCC(c1ccco1)S(=O)(=O)c1cccs1)c1ccc(Cl)cc1 (configuration not stated)	inactive: -10%
CCCN(C(=O)Nc1cn(CC(C)C)c(=O)c2ccccc12)c1ccc(F)cc1	inactive: -3.94%
Cc1cc(Cl)ccc1NC(=O)CCCn1nc(C)c2c(C)n(-c3ccccc3)nc2c1=O	inactive: 1.78%
Cc1cc(C)cc(NC(=O)CSc2nc3sc4c(c3c(=O)[nH]2)CCCC4)c1	inactive: 14%
CCC1CN(C(=O)Nc2cc(Cl)c(OC)cc2OC)c2ccccc2O1 (configuration not stated)	inactive: 1.74%

SMILES	activity change, negative = cytotoxicity
COc1ccc(-c2noc(CC(=O)Nc3ccc(C)c(F)c3)n2)cc1	inactive: 9.44%
COc1cc(OC)c(C2C(C(=O)Nc3ccccc3)=C(C)Nc3ncnn32)cc1OC (configuration not stated)	inactive: 5.62%
CCCCN(C)S(=O)(=O)c1ccc(C(=O)Nc2ccc(-c3nc4ccc(C)cc4s3)cc2)cc1	inactive: 2.54%
Cc1cc(NC(=O)c2cccn2-c2nnc(N3CCCCC3)s2)ccc1Br	inactive: -13.9%
CCN1CCN(c2oc(/C=C/c3cc(OC)c(OC)c(OC)c3)nc2C#N)CC1	inactive: -9.79%
Cc1ccc(Cl)cc1NC(=O)c1oc2ccc(S(=O)(=O)N3CCCCCC3)cc2c1C	inactive: -0.616%
Cn1cc(S(=O)(=O)c2cccc(Cl)c2)c(=O)c2cc(F)c(N3CCCCC3)cc21	inactive: 1.83%
O=C(NCCc1ccc(Cl)cc1)c1ccc(CSCc2cccc(Cl)c2)o1	inactive: -6.48%
CCc1cccc(C)c1NC(=O)CSc1nc2c(c(=O)[nH]1)CCC2	inactive: 6.87%
CCCN1C(=O)C(Cc2nc3ccccc3c(=O)n2-c2ccc(OC)cc2)c2cc(C)ccc21 (configuration not stated)	inactive: -2.16%
Cc1cc(C)cc(OCC(=O)N2CCC(c3nc4ccccc4s3)CC2)c1	inactive: 0.569%
COc1ccccc1C(=O)Nc1ccc(S(=O)(=O)Nc2ncccn2)cc1	inactive: -29.7%
Cc1ccc(C)c(N2CCN(C(=O)C(CC(C)C)NS(=O)(=O)c3ccc4nc(C)sc4c3)CC2)c1 (configuration not stated)	inactive: 1.55%
NC(=O)CSc1nc2ccc(NC(=O)COc3ccccc3Cl)cc2s1	inactive: 17.9%
Cc1ccc(C)c(N2CCN(c3nc4ccc(C(=O)c5ccccc5)cc4n4cnnc34)CC2)c1	inactive: 12%
Cc1cccc(OCCCn2c(CCNC(=O)C3CCCCC3)nc3ccccc32)c1	inactive: -27.5%
COc1ccccc1CN(Cc1c(Cl)cccc1Cl)S(=O)(=O)c1ccc(Br)cc1	inactive: -0.838%
CCOc1ccc(-c2cc(C(=O)NCCc3ccc(OC)c(OC)c3)c3c(-c4ccc(F)cc4)[nH]nc3n2)cc1	inactive: -7.22%
COc1ccc(Cl)cc1NC(=O)c1cc(S(=O)(=O)N(C)Cc2ccccc2)ccc1F	inactive: 3.49%
Cc1cccc(NC(=O)N2CCC(CN3CCCCCC3)CC2)c1C	inactive: -9.18%
